Source: patent US5391540A, “Substituted pyridine compounds” (Rohm and Haas Company, priority 1993, dated 1995)
The name of at least one read-out is uncertain. Some compounds share one range, which may span the group rather than tell each member.

Assays:
Experiment in all cases: Post-emergence herbicidal activity (Table C)
Assay type in all cases: in vivo
Canada thistle = details: Cath, 11.2 kg/ha, 10-14 days
Cocklebur = details: Cobu, 11.2 kg/ha, 10-14 days
Downy Brome = details: Dobr, 11.2 kg/ha, 10-14 days
Morningglory = details: Mogl, 11.2 kg/ha, 10-14 days
Pennsylvania Smartweed = details: Pesw, 11.2 kg/ha, 10-14 days
Quackgrass = details: Rhqg, 11.2 kg/ha, 10-14 days
Rhizome Johnsongrass = details: Rhjg, 11.2 kg/ha, 10-14 days
Velvetleaf = details: Vele, 11.2 kg/ha, 10-14 days
Yellow Nutsedge = details: Yens, 11.2 kg/ha, 10-14 days
Barnyardgrass = details: Bygr, 11.2 kg/ha, 10-14 days
Common Lambsquarters = details: Colq, 11.2 kg/ha, 10-14 days

SMILES	post-emergent herbicidal activity index (Canada thistle)	post-emergent herbicidal activity index (Cocklebur)	post-emergent herbicidal activity index (Downy Brome)	post-emergent herbicidal activity index (Morningglory)	post-emergent herbicidal activity index (Pennsylvania Smartweed)	post-emergent herbicidal activity index (Quackgrass)	post-emergent herbicidal activity index (Rhizome Johnsongrass)	post-emergent herbicidal activity index (Velvetleaf)	post-emergent herbicidal activity index (Yellow Nutsedge)	post-emergent herbicidal activity index (Barnyardgrass)	post-emergent herbicidal activity index (Common Lambsquarters)
COC(=O)c1c(C(F)(F)F)nc(OC)c(N=CSC)c1CC(C)C [Compound 58, 3-pyridinecarboxylic acid, 6-methoxy-4-(2-methylpropyl)-5-[(methylthiomethylene)]amino-2-(trifluoromethyl)-, methyl ester]	0 (0-24% inhibition)	0 (0-24% inhibition)	0 (0-24% inhibition)	0 (0-24% inhibition)	0 (0-24% inhibition)	0 (0-24% inhibition)	0 (0-24% inhibition)	0 (0-24% inhibition)	0 (0-24% inhibition)	0 (0-24% inhibition)	0 (0-24% inhibition)
COC(=O)c1c(OC)nc(C(F)(F)F)c(C(=O)OC)c1CC(=O)O [Compound 13, 3,5-pyridinedicarboxylic acid, 4-(carboxymethyl)-2-methoxy-6-(trifluoromethyl)-, dimethyl ester]	0 (0-24% inhibition)	0 (0-24% inhibition)	0 (0-24% inhibition)	0 (0-24% inhibition)	0 (0-24% inhibition)	0 (0-24% inhibition)	0 (0-24% inhibition)	0 (0-24% inhibition)	0 (0-24% inhibition)	0 (0-24% inhibition)	2 (50-74% inhibition)
CCCOc1nc(C(F)(F)F)c(C(=O)OC)c(CC(C)C)c1C(=O)OCC [Compound 7, 3,5-pyridinedicarboxylic acid, 4-(2-methylpropyl)-2-propyloxy-6-(trifluoromethyl)-,3-ethyl 5-methyl ester]	0 (0-24% inhibition)	0 (0-24% inhibition)	0 (0-24% inhibition)	0 (0-24% inhibition)	0 (0-24% inhibition)	0 (0-24% inhibition)	0 (0-24% inhibition)	0 (0-24% inhibition)	0 (0-24% inhibition)	0 (0-24% inhibition)	0 (0-24% inhibition)
COC(=O)c1c(OC)nc(C(F)(F)F)c(C2=NCC(C)S2)c1CC(C)C (stereo not drawn) [Compound 64, 3-pyridinecarboxylic acid, 5-(4,5-dihydro-5-methy1-2-thiazolyl)-2-methoxy-4-(2-methylpropyl)-6-(trifluoromethyl)-, methyl ester]	0 (0-24% inhibition)	0 (0-24% inhibition)	0 (0-24% inhibition)	0 (0-24% inhibition)	0 (0-24% inhibition)	0 (0-24% inhibition)	0 (0-24% inhibition)	0 (0-24% inhibition)	0 (0-24% inhibition)	0 (0-24% inhibition)	0 (0-24% inhibition)
CCOC(=O)c1c(OCC)nc(C(F)(F)F)c(C(=O)OCC)c1CC(C)C [Compound 39, 3,5-pyridinedicarboxylic acid, 2-ethoxy-4-(2-methylpropyl)-6-(trifluoromethyl)-, diethyl ester]	0 (0-24% inhibition)	0 (0-24% inhibition)	0 (0-24% inhibition)	0 (0-24% inhibition)	0 (0-24% inhibition)	0 (0-24% inhibition)	0 (0-24% inhibition)	0 (0-24% inhibition)	0 (0-24% inhibition)	0 (0-24% inhibition)	1 (25-49% inhibition)
CCOc1nc(C(F)(F)F)c(C(=NC)SC)c(CC(C)C)c1C(=O)OC [Compound 46, 3-pyridinecarboxylic acid, 2-ethoxy-5-[(methylimino)(methylthio)methyl]-4-(2-methylpropyl)-6-(trifluoromethyl)-, methyl ester]	0 (0-24% inhibition)	0 (0-24% inhibition)	0 (0-24% inhibition)	0 (0-24% inhibition)	0 (0-24% inhibition)	0 (0-24% inhibition)	0 (0-24% inhibition)	0 (0-24% inhibition)	0 (0-24% inhibition)	0 (0-24% inhibition)	0 (0-24% inhibition)
COC(=O)c1c(OC)nc(C(F)(F)F)c(C(=O)N2CCOCC2)c1CC(C)C [Compound 69, 3-pyridinecarboxylic acid, 2-methoxy-4-(2-methylpropyl)-5-(4-morpholinyl)carbony1-6-(trifluoromethyl)-, methyl ester]	0 (0-24% inhibition)	0 (0-24% inhibition)	0 (0-24% inhibition)	0 (0-24% inhibition)	0 (0-24% inhibition)	0 (0-24% inhibition)	0 (0-24% inhibition)	0 (0-24% inhibition)	0 (0-24% inhibition)	0 (0-24% inhibition)	3 (75-99% inhibition)
COC(=O)c1c(OC)nc(C(F)(F)F)c(C(=O)OC)c1C1CC1 [Compound 9, 3,5-pyridinedicarboxylic acid, 4-cyclopropy1-2-methoxy-6-(trifluoromethyl)-, dimethyl ester]	0 (0-24% inhibition)	0 (0-24% inhibition)	0 (0-24% inhibition)	0 (0-24% inhibition)	0 (0-24% inhibition)	0 (0-24% inhibition)	0 (0-24% inhibition)	0 (0-24% inhibition)	0 (0-24% inhibition)	0 (0-24% inhibition)	0 (0-24% inhibition)
COC(=O)c1c(C(F)(F)F)nc(OC)c(C(=O)n2ccnc2)c1CC(C)C [Compound 28, 3-pyridinecarboxylic acid, 6-methoxy-4-(2-methylpropyl)-5-(1H-imidazo1-1-ylcarbonyl)-2-(trifluoromethyl)-, methyl ester]	0 (0-24% inhibition)	–	0 (0-24% inhibition)	0 (0-24% inhibition)	0 (0-24% inhibition)	0 (0-24% inhibition)	0 (0-24% inhibition)	0 (0-24% inhibition)	0 (0-24% inhibition)	0 (0-24% inhibition)	0 (0-24% inhibition)
COC(=O)c1c(OC)nc(C(F)(F)Cl)c(C(=O)OC)c1CC(C)C [Compound 30, 3,5-pyridinedicarboxylic acid, 2-(chlorodifluoromethyl)-6-methoxy-4-(2-methylpropyl)-, dimethyl ester]	3 (75-99% inhibition)	3 (75-99% inhibition)	0 (0-24% inhibition)	3 (75-99% inhibition)	2 (50-74% inhibition)	0 (0-24% inhibition)	0 (0-24% inhibition)	1 (25-49% inhibition)	0 (0-24% inhibition)	–	3 (75-99% inhibition)
